The results in this text go back to paper PMC12352791.

Sequences of proteins named here, by UniProt entry; tags and fusion partners are left off. A change or cut given only in a name is not applied to a line headed by its entry.
UniProt Q9Y572: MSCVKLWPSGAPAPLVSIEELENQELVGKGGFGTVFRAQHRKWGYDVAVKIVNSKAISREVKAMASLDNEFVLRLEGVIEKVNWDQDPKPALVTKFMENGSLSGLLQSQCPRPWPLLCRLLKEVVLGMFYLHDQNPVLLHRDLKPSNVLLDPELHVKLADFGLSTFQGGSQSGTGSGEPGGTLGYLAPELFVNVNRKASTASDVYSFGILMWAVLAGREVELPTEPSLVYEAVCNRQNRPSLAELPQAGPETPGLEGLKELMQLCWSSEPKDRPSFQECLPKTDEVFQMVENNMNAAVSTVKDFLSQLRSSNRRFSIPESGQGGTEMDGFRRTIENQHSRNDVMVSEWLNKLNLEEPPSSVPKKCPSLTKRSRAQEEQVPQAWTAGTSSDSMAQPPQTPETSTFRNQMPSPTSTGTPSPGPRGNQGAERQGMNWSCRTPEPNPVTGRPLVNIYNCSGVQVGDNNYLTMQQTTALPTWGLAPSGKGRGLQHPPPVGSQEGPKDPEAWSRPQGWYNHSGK
UniProt Q13546: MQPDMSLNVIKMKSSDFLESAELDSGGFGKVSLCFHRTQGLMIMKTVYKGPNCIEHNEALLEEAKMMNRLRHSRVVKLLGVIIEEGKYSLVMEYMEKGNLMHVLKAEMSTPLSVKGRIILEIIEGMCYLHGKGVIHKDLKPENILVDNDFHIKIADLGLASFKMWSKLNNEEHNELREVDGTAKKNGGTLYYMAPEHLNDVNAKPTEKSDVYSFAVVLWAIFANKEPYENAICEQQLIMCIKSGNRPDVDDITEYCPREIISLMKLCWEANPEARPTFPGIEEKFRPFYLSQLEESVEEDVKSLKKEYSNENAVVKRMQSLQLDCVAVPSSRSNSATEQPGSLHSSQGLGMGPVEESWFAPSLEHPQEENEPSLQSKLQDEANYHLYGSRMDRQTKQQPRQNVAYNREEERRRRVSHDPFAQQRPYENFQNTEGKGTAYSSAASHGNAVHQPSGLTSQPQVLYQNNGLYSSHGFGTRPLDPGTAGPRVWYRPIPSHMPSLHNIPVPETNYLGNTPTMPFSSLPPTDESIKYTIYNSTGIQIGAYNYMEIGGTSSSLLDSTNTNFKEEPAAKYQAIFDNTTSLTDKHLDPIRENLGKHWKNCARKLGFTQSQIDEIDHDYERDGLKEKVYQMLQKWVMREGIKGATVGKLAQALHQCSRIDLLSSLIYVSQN

Experiment [1] concerns the target T1, Flag-USP53 (UniProt Q70EK8).
T1 sequence: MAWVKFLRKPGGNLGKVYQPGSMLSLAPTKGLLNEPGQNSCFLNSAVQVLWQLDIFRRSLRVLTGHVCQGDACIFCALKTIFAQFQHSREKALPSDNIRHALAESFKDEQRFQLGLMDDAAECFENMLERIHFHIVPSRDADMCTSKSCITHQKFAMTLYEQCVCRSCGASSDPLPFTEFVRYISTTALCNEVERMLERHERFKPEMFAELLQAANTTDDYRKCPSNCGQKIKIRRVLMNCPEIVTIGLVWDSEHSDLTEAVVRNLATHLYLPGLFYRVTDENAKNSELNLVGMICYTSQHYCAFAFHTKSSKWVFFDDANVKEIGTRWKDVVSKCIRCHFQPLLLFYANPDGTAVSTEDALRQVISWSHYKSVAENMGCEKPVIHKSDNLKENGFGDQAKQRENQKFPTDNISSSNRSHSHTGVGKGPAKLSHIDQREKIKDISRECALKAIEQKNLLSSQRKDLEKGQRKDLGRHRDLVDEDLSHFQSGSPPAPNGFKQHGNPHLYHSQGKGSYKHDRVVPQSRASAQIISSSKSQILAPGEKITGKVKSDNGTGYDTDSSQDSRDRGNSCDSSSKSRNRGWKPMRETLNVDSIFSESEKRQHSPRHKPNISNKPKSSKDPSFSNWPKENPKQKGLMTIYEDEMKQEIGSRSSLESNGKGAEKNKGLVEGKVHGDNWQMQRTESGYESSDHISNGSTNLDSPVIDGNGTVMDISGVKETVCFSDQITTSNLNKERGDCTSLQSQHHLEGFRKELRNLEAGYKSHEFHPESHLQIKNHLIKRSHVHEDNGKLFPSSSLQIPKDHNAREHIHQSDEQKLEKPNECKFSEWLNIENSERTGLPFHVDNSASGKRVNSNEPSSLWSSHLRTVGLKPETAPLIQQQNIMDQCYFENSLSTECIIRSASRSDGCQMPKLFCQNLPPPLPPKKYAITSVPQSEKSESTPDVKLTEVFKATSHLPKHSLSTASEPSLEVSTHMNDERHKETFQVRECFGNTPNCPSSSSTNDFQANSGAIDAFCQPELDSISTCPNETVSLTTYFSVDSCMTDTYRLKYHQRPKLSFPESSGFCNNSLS
Kind of experiment: co-IP; Co-IP of RIPK1 or RIPK1-K377R with USP53 (Fig. S5G); cells and precipitating antibody not given.

Experiment [2] concerns the target T1, Flag-USP53. Description: co-IP; HEK-293T cells cotransfected with Flag-USP53 and HA-RIPK1 or its truncation mutants; anti-Flag IP, Western blotting. In general terms: Immunoblotting shows a protein as a band on a membrane.
The target in experiment [3] is receptor-interacting protein kinase 3 (RIPK3), endogenous in AC16 cells (human (endogenous in AC16)) (UniProt Q9Y572). Kind of experiment: co-IP; endogenous proteins in AC16 cells with or without EtOH (200 mM, 24 h); NP-40 lysis buffer, Protein A/G magnetic beads, overnight at 4 °C.
For experiment [4], the target named is receptor-interacting serine/threonine-protein kinase 1 (RIPK1), endogenous in AC16 cells (human (endogenous in AC16)) (UniProt Q13546). The description is as above.
Experiment [5] concerns the target HA-RIPK1 (human) (UniProt Q13546). Kind of experiment: co-IP; HEK-293T cells cotransfected with HA-RIPK1 and Flag-USP53 or its truncation mutants; anti-HA IP, Western blotting.

No constants are given. Whether binding was seen depends on the method and setting. In cells and extracts the contact can be indirect. Some entries that bind do so weakly or less than the wild type. For some of these results: Where a sequence is shown, tags or fusion partners need not be part of it.

“HA-RIPK1-K377R (from UniProt Q13546 1-671)”: the binding result in experiment [1] is listed as “binds”.

“HA-RIPK1-KD (kinase domain) (from UniProt Q13546 17-289) (domain or fragment)”: the binding entry in experiment [2] was “no binding”.

With HA-RIPK1 (from UniProt Q13546 1-671), the binding result in experiment [2] and in experiment [1] was “binds” in each case.

B1: ubiquitin-specific protease 53 (USP53), endogenous in AC16 cells (protein, UniProt Q70EK8 1-1073)
chain: T1 sequence
On to B1, for which the binding result in experiment [3] was “no binding”; in experiment [4], “binds”.

B2: Flag-USP53 (protein, UniProt Q70EK8 1-1073)
chain: T1 sequence
In the case of B2, in experiment [5], the binding result is recorded as “binds”.
